Laboratory results reported in patent US20220401523A1 (Sanofi, published 2022).

B1: GLP1(7-36) insG, A8G, V16L, S18I, Y19Q, G22E, Q23E, A25V, K26R, E27L, A30E, V33L, K34A, R36G, insPKK (Fc fusion)
chain: GHGEGTFTSDLSIQLEEEAVRLFIEWLLAGGPKKQRLSGGGGGGGSGGGGSGGGGSA[sequence of human IgG4 Fc with changes omitted]GGGSGSAHPIPDSSPLLQFGGQVRQRYLYTDDACQTEAHLEIREDGTVGGAADQSPESLLQLKALKPGVIQILGVKTSRFLCQRPDGALYGSLHFDPEACSFRELLLEDGYNVYQSEAHGLPLHLPGCKSPHRDPAPRGPARFLPLPGLPPAPPEPPGILAPQPPDVGSSDPLSMVGSQGRSPSYAS
B2: GLP1(7-36) A8G, V16L, S18K, Y19Q, G22E, Q23E, A25V, K26Q, E27L, A30E, V33L, K34A, G35T, R36G_[19GS]_ (Fc fusion)
chain: HGEGTFTSDLSKQLEEEAVQLFIEWLLATGGGGGGGGSGGGGSGGGGSA[sequence of human IgG4 Fc with changes omitted]GGGSGSAHPIPDSSPLLQFGGQVRQRYLYTDDACQTEAHLEIREDGTVGGAADQSPESLLQLKALKPGVIQILGVKTSRFLCQRPDGALYGSLHFDPEACSFRELLLEDGYNVYQSEAHGLPLHLPGCKSPHRDPAPRGPARFLPLPGLPPAPPEPPGILAPQPPDVGSSDPLSMVYPSQGRSPSYAS

Biological target: human glucagon-like peptide-1 (GLP-1) receptor (human, UniProt P43220 24-463)
Test: cell-based or functional assay

UniProt P43220, sequence (P43220 24-463): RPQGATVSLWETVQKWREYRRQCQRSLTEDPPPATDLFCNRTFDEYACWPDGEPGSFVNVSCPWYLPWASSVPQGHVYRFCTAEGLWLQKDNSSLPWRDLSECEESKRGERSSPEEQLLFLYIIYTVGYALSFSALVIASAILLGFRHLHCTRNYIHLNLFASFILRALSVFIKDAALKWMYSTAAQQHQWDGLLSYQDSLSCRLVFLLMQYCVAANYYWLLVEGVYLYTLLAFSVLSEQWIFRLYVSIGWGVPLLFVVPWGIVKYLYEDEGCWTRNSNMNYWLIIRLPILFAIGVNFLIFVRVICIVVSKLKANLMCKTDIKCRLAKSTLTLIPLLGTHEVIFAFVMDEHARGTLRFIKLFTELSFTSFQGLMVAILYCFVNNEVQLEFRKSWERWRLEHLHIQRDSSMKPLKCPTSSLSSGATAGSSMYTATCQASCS

| Binder | EC50 of cAMP response (HTRF) [nM] | Ratio GLP-1R agonistic activity: native GLP-1(7-36)/tested GLP-1R agonist [fold] |
| --- | --- | --- |
| B1 | 0.0146 | 18.9 |
| B2 | 0.063 | 81.9 |
